Certain results were filed several times, with different values. The other results are left out here. There may be further records. Values that stand side by side are repeats (runs, samples, wells, individuals or studies). Marks such as (2×) stand for listed records that agree.
System: 463943-066-T-J2-PDC tumor spheroids with HUVEC/MSC, viability
Assay: Anticancer human tumor 463943-066-T-J2-PDC patient-derived colon adenocarcinoma cell line growth inhibition [TAK]
Settings: stronger effect = lower value
Excerpt: Combinatorial screen of targeted agents with TAK-243 and ipatasertib in multi-cell type tumor spheroids
A high-throughput screen of multi-cell type tumor spheroids was designed to identify active combinations of targeted small molecules and TAK-243 or ipatasertib. Complex spheroids include a stromal component modeled by human endothelial cells (HUVEC) and fibroblasts modeled by human mesenchymal stem cells (MSCs). The concentration ranges selected for each drug and investigational agent were based upon clinically achievable concentrations if the clinical Cmax of the agent was known.
Compounds. The drugs and investigational agents: TAK-243 (785004), ipatasertib (767898), everolimus (733504), selumetinib (741078), bortezomib (756655), trametinib (758246), ixazomib (758254), vemurafenib (761431), dabrafenib (764134), sapanisertib (764658), alpelisib (765974), and copanlisib (816437), were obtained from the National Cancer Institute (NCI) Developmental Therapeutics Program Chemical Repository. The FDA-approved anticancer drug set is available from the NCI Developmental Therapeutics Program. […] The stock solutions were prepared in dimethyl sulfoxide (DMSO, Sigma-Aldrich, St. Louis, MO, cat. D2650) at 800-fold the tested concentration and stored at -70 degrees C prior to their use. All drugs and investigational agents were tested over a range starting from a high concentration at or near the clinical Cmax and decreasing in half-log increments. If the clinical Cmax for an agent had not been determined, the highest concentration tested was 10 microM.
NCI60 Cell Culture. NCI60 cell lines were obtained from the NCI Developmental Therapeutics Program Tumor Repository. […] The optimal seeding densities for each of the cell lines at each time point assessed were determined prior to performing the concentration response studies. […]
For the pre-screen, cell seeding densities were determined from a titration spanning the range from 5,000 to 313 cells per well. […]
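Also: spheroids exposed to drugs for seven days; 100% = DMSO vehicle control wells.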

Compound: CC(C)NCC(C(=O)N1CCN(c2ncnc3c2C(C)CC3O)CC1)c1ccc(Cl)cc1 (stereo not drawn)
- viability, T/C (compound alone 0.949 µM): 76.7, 103, 85.4, 111, 96.3, 92.3, 88.5, 92.5, 88.9, 92.6%
- viability, T/C (compound alone 9.49 µM): 77.2, 99.9, 88.3, 86, 98.1, 92.6, 109, 94, 93.3, 94.7%
- viability, T/C (compound alone 30 µM): 76.8, 103, 88.3, 91.8, 98.2, 101 (2×), 94.6, 99.6, 90.6%

Reference: PubChem BioAssay AID2060361 (Molecular Pharmacology Branch, DTP, NCI, 2025)
